# From the supplement of paper PMC8728848
# This is one part of the list.
# B1: HBHA-Rv (Mycobacterium tuberculosum), P0A5P6 (protein)
# chain: MAENSNIDDIKAPLLAALGAADLALATVNELITNLRERAEETRTDTRSRVEESRARLTKLQEDLPEQLTELREKFTAEELRKAAEGYLEAATSRYNELVERGEAALERLRSQQSFEEVSARAEGYVDQAVELTQEALGTVASQTRAVGERAAKLVGIELPKKAAPAKKAAPAKKAAPAKKAAAKKAPAKKAAAKKVTQK
# Assays:
# Experiment in all cases: glycan array binding signal (z-score within array); higher = stronger binding
# Details in all cases: glycan notation: IUPAC condensed, linker removed
# [1] = target: GlcNAc(b1-3)Gal(b1-3)GalNAc
# Summary of the method: (§1)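 From the Consortium for Functional Glycomics database, 3228 arrays were curated, keeping only those whose protein sequence was available. Binding is given as a within-array Z-score averaged across arrays sharing a protein sequence and across linkers. Negative Z-scores can be read as non-binding.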
# GlcNAc(b1-3)Gal(b1-4)Glc = target: GlcNAc(b1-3)Gal(b1-4)Glc
# Summary of the method: as §1
# [2] = target: GlcNAc(b1-3)Gal(b1-4)GlcNAc
# Summary of the method: as §1
# [3] = target: GlcNAc(b1-3)Gal(b1-4)GlcNAc(b1-2)Man(a1-3)[GlcNAc(b1-3)Gal(b1-4)GlcNAc(b1-2)Man(a1-6)]Man(b1-4)GlcNAc(b1-4)GlcNAc
# Summary of the method: as §1
# [4] = target: GlcNAc(b1-3)Gal(b1-4)GlcNAc(b1-2)Man(a1-3)[GlcNAc(b1-3)Gal(b1-4)GlcNAc(b1-2)Man(a1-6)]Man(b1-4)GlcNAc(b1-4)[Fuc(a1-6)]GlcNAc
# Summary of the method: as §1
# [5] = target: GlcNAc(b1-3)Gal(b1-4)GlcNAc(b1-2)[GlcNAc(b1-3)Gal(b1-4)GlcNAc(b1-6)]Man(a1-6)[GlcNAc(b1-3)Gal(b1-4)GlcNAc(b1-2)Man(a1-3)]Man(b1-4)GlcNAc(b1-4)GlcNAc
# Summary of the method: as §1
# [6] = target: GlcNAc(b1-3)Gal(b1-4)GlcNAc(b1-3)Gal(b1-4)GlcNAc
# Summary of the method: as §1
# [7] = target: GlcNAc(b1-3)Gal(b1-4)GlcNAc(b1-3)Gal(b1-4)GlcNAc(b1-2)Man(a1-3)[GlcNAc(b1-3)Gal(b1-4)GlcNAc(b1-3)Gal(b1-4)GlcNAc(b1-2)Man(a1-6)]Man(b1-4)GlcNAc(b1-4)GlcNAc
# Summary of the method: as §1
# [8] = target: GlcNAc(b1-3)Gal(b1-4)GlcNAc(b1-3)Gal(b1-4)GlcNAc(b1-2)Man(a1-3)[GlcNAc(b1-3)Gal(b1-4)GlcNAc(b1-3)Gal(b1-4)GlcNAc(b1-2)Man(a1-6)]Man(b1-4)GlcNAc(b1-4)[Fuc(a1-6)]GlcNAc
# Summary of the method: as §1
# [9] = target: GlcNAc(b1-3)Gal(b1-4)GlcNAc(b1-3)Gal(b1-4)GlcNAc(b1-2)[GlcNAc(b1-3)Gal(b1-4)GlcNAc(b1-3)Gal(b1-4)GlcNAc(b1-6)]Man(a1-6)[GlcNAc(b1-3)Gal(b1-4)GlcNAc(b1-3)Gal(b1-4)GlcNAc(b1-2)Man(a1-3)]Man(b1-4)GlcNAc(b1-4)[Fuc(a1-6)]GlcNAc
# Summary of the method: as §1
# [10] = target: GlcNAc(b1-3)Gal(b1-4)GlcNAc(b1-3)Gal(b1-4)GlcNAc(b1-3)Gal(b1-4)GlcNAc(b1-2)Man(a1-3)[GlcNAc(b1-3)Gal(b1-4)GlcNAc(b1-3)Gal(b1-4)GlcNAc(b1-3)Gal(b1-4)GlcNAc(b1-2)Man(a1-6)]Man(b1-4)GlcNAc(b1-4)GlcNAc
# Summary of the method: as §1
# [11] = target: GlcNAc(b1-3)Gal(b1-4)GlcNAc(b1-3)Gal(b1-4)GlcNAc(b1-3)Gal(b1-4)GlcNAc(b1-2)Man(a1-3)[GlcNAc(b1-3)Gal(b1-4)GlcNAc(b1-3)Gal(b1-4)GlcNAc(b1-3)Gal(b1-4)GlcNAc(b1-2)Man(a1-6)]Man(b1-4)GlcNAc(b1-4)[Fuc(a1-6)]GlcNAc
# Summary of the method: as §1
# [12] = target: GlcNAc(b1-3)Gal(b1-4)GlcNAc(b1-3)Gal(b1-4)GlcNAc(b1-3)Gal(b1-4)GlcNAc(b1-2)[GlcNAc(b1-3)Gal(b1-4)GlcNAc(b1-3)Gal(b1-4)GlcNAc(b1-3)Gal(b1-4)GlcNAc(b1-6)]Man(a1-6)[GlcNAc(b1-3)Gal(b1-4)GlcNAc(b1-3)Gal(b1-4)GlcNAc(b1-3)Gal(b1-4)GlcNAc(b1-2)Man(a1-3)]Man(b1-4)GlcNAc(b1-4)[Fuc(a1-6)]GlcNAc
# Summary of the method: as §1
# [13] = target: GlcNAc(b1-3)Gal(b1-4)GlcNAc(b1-3)Gal(b1-4)GlcNAc(b1-3)Gal(b1-4)GlcNAc(b1-3)Gal(b1-4)GlcNAc(b1-2)Man(a1-3)[GlcNAc(b1-3)Gal(b1-4)GlcNAc(b1-3)Gal(b1-4)GlcNAc(b1-3)Gal(b1-4)GlcNAc(b1-3)Gal(b1-4)GlcNAc(b1-2)Man(a1-6)]Man(b1-4)GlcNAc(b1-4)GlcNAc
# Summary of the method: as §1
# [14] = target: GlcNAc(b1-3)Gal(b1-4)GlcNAc(b1-3)Gal(b1-4)GlcNAc(b1-3)Gal(b1-4)GlcNAc(b1-3)Gal(b1-4)GlcNAc(b1-2)Man(a1-3)[GlcNAc(b1-3)Gal(b1-4)GlcNAc(b1-3)Gal(b1-4)GlcNAc(b1-3)Gal(b1-4)GlcNAc(b1-3)Gal(b1-4)GlcNAc(b1-2)Man(a1-6)]Man(b1-4)GlcNAc(b1-4)[Fuc(a1-6)]GlcNAc
# Summary of the method: as §1
# [15] = target: GlcNAc(b1-3)Gal(b1-4)GlcNAc(b1-3)Gal(b1-4)GlcNAc(b1-3)Gal(b1-4)GlcNAc(b1-3)Gal(b1-4)GlcNAc(b1-2)[GlcNAc(b1-3)Gal(b1-4)GlcNAc(b1-3)Gal(b1-4)GlcNAc(b1-3)Gal(b1-4)GlcNAc(b1-3)Gal(b1-4)GlcNAc(b1-6)]Man(a1-6)[GlcNAc(b1-3)Gal(b1-4)GlcNAc(b1-3)Gal(b1-4)GlcNAc(b1-3)Gal(b1-4)GlcNAc(b1-3)Gal(b1-4)GlcNAc(b1-2)Man(a1-3)]Man(b1-4)GlcNAc(b1-4)[Fuc(a1-6)]GlcNAc
# Summary of the method: as §1
# [16] = target: GlcNAc(b1-3)Gal(b1-4)GlcNAc(b1-3)Gal(b1-4)GlcNAc(b1-3)GalNAc
# Summary of the method: as §1
# [17] = target: GlcNAc(b1-3)Gal(b1-4)GlcNAc(b1-3)GalNAc
# Summary of the method: as §1
# [18] = target: GlcNAc(b1-3)Gal(b1-4)GlcNAc(b1-3)[GlcNAc(b1-3)Gal(b1-4)GlcNAc(b1-3)]GalNAc
# Summary of the method: as §1
# [19] = target: GlcNAc(b1-3)Gal(b1-4)GlcNAc(b1-6)[Gal(b1-3)]GalNAc
# Summary of the method: as §1
# [20] = target: GlcNAc(b1-3)Gal(b1-4)GlcNAc(b1-6)[GlcNAc(b1-3)Gal(b1-3)]GalNAc
# Summary of the method: as §1
# [21] = target: GlcNAc(b1-3)Gal(b1-4)GlcNAc(b1-6)[GlcNAc(b1-3)]Gal(b1-4)GlcNAc
# Summary of the method: as §1
binder,measurement,setting,value
B1,glycan array binding signal (z-score),[1],-0.348
same,glycan array binding signal (z-score),GlcNAc(b1-3)Gal(b1-4)Glc,0.832
same,glycan array binding signal (z-score),[2],-0.063
same,glycan array binding signal (z-score),[3],-0.423
same,glycan array binding signal (z-score),[4],-0.332
same,glycan array binding signal (z-score),[5],-0.106
same,glycan array binding signal (z-score),[6],-0.34
same,glycan array binding signal (z-score),[7],-0.01
same,glycan array binding signal (z-score),[8],-0.411
same,glycan array binding signal (z-score),[9],-0.372
same,glycan array binding signal (z-score),[10],-0.412
same,glycan array binding signal (z-score),[11],-0.455
same,glycan array binding signal (z-score),[12],-0.347
same,glycan array binding signal (z-score),[13],-0.458
same,glycan array binding signal (z-score),[14],-0.46
same,glycan array binding signal (z-score),[15],-0.352
same,glycan array binding signal (z-score),[16],-0.352
same,glycan array binding signal (z-score),[17],-0.445
same,glycan array binding signal (z-score),[18],-0.425
same,glycan array binding signal (z-score),[19],-0.445
same,glycan array binding signal (z-score),[20],-0.455
same,glycan array binding signal (z-score),[21],-0.384
